Results: the supplement of paper PMC11417369
± gives the standard deviation of the averaged measurements. This is one part of the list.

The sequences below were run on PfAP2-LT AP2 domain (GST-tagged) (assay: gcPBM binding intensity (ln(normalized median fluorescence intensity)); higher = stronger DNA binding).
Summary of the method: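 An Agilent 4 × 180k array carrying primer-extended double-stranded 36-bp intergenic genomic probes and negative controls received GST-tagged P. falciparum DNA-binding domains expressed in E. coli, about 25 μg on average, for 1 h. The binding buffer contained 1× PBS, 1% milk, 0.2 mg/ml BSA, 0.5% salmon testes DNA and 0.03% Triton X-100. Binding intensity is the top Masliner-normalised natural-log median intensity across replicate spots of either probe orientation, read after Alexa488 anti-GST antibody staining and a 488 nm scan.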

Sequence | gcPBM binding intensity (ln)
ATTTCACAGAAACACACACACAATATATTTCCTTTT [CACACA_site3904] | 9.56 ± 0.28
ATATGTATATATATTTGTACGTAAAATGAAATCTAA [XGTACX_site213] | 8.96 ± 0.4
TATACATAGATATATACACACATATATTTATATACA [CACACA_site6328] | 8.95 ± 0.41
ATTACAAAAAAAAAAAAAAAAAAAAAAAAAAAAAAA [CACACA_negctrl_site448] | 8.13 ± 0.29
ACAATAAAAATTTATGCATGTGAATTGAAAAAAAAA [TGCATGCA_site1037] | 8.72 ± 0.48
CTTATATATATATCATGTACTTATGTATTTAAGAAT [XGTACX_site3307] | 8.61 ± 0.43
AATATATACAATATATGTACATATATATACACATAT [XGTACX_site4190] | 8.98 ± 0.39
CTTTTATTAAAATTCACACACATAAACTTTTATAAA [CACACA_site7027] | 8.71 ± 0.39
ATAAAATACCTATAAACACACATATAAACAGACATA [CACACA_site7213] | 9.25 ± 0.33
GTTATTGAAAAAATAGTGCAATATAACAAAGTAAAA | 8.85 ± 0.48
AAATAAAACAAACACACACACACATACACAAAAAAA [CACACA_site3849] | 10.12 ± 0.035
TAATTTCTTATGTATTGTACAAATAATATATGATAT [XGTACX_site611] | 8.54 ± 0.29
TATATATTTCGGTGTGCACACTTTTTATTTTTATCC [CACACA_site1726] | 9.57 ± 0.41
TATATATATATATGTACACACATATATACCTTTCAT [CACACA_site2679] | 9.75 ± 0.44
GGAATGTAGGGTTTTACCAAAATAAAAATAACCATA [XGTACX_negctrl_site492] | 8.71 ± 0.54
CACTTAACACAAGAGTGTACACATATATATATATAT [XGTACX_site686] | 9.53 ± 0.33
TTGTACGCAAAAAAAAAAAAAAAAAAATTAAAATTT [TGCATGCA_negctrl_site586] | 8.18 ± 0.45
TTTTTCTCTTTAAGGTGTACAATAATACAGTAACCA [XGTACX_site300] | 8.46 ± 0.39
ATATTAGTAACACAGACACACAAAAAAAAAAAAAAA [CACACA_site2176] | 9.01 ± 0.59
AGGAAAATACCTTAATGTACATAGAAAAGTAACATT [XGTACX_site8011] | 8.88 ± 0.4
TTTTTTATTATCAAAACATGCATTTTTTAAATGGAA [TGCATGCA_site557] | 8.11 ± 0.35
TAATGAAATATACAGAGTACATTCTGTATATAGGAT [XGTACX_site7691] | 8.93 ± 0.42

Sequence | gcPBM binding intensity (ln)
TATATATGTATATATATAAATATATATATATATATA [TGCATGCA_negctrl_site605] | 9.26 ± 0.22
GCATAAGAAAATAATTGTACAATTTACATACATAAA [XGTACX_site8286] | 8.78 ± 0.52
TACTCAAAAATTAATTAGCATAATATATATAAAAAT [GTGCAC_negctrl_site613] | 8.49 ± 0.45
TATAAATATATATACACACACACATTAATACATATA [CACACA_site3488] | 9.76 ± 0.28
TTAAGAAGTTCTAAATGTACATACATAACCACGTTA [XGTACX_site7514] | 8.62 ± 0.33
ATAATATTTTCTTCTTATTGAATGCTTTAAATTTAC [CACACA_negctrl_site1273] | 8.62 ± 0.5
GGGAAATATTGAAACACACACGAACGCACGTATTTC [CACACA_site6258] | 9.31 ± 0.26
TTAAACCGTGGGAGCACACACACACCCCCACCCATA [CACACA_site331] | 10.1 ± 0.17
ACAAATAAGTTTTGTAGTACTGTGTATATATATATA [XGTACX_site6901] | 9.21 ± 0.35
TTTGTATATTATTTTAGTACATAACATTGAAGATAT [XGTACX_site6680] | 8.49 ± 0.39
ATATAAGGATTAATATGTACATATATATATATATTT [XGTACX_site1390] | 8.95 ± 0.42
TATTTTGAAACTAAAAGACATAGAGAAAACAAAAAA [CACACA_negctrl_site1306] | 8.54 ± 0.43
AAATAATGTTTGAATTGTACACATATTTGTGTTTCT [XGTACX_site4603] | 9.01 ± 0.52
ATGTTGCACAGTGGAAGAATTAAAAATAAATAAATA [XGTACX_negctrl_site581] | 8.65 ± 0.72
GTGGAACGTATATTTTCACACACTCTCAAAAGTACA [CACACA_site8722] | 8.93 ± 0.47
GTGGAACATATGAACTCACACACATTTTCACTTAAA [CACACA_site3683] | 9.15 ± 0.45
ATGAACATATCAATTCTCAAAATAGGATGAGAGCAT [CACACA_negctrl_site230] | 8.87 ± 0.52
AATTTTTGTATTTTTAGTACTTAATTTCAAAATAAC [XGTACX_site4234] | 8.38 ± 0.36
AATATTATAAATGTCACACATATATTCAAATATATA [CACACA_site4736] | 8.62 ± 0.37
TTATAGAAAATGGAATAGAATGGAATGGAAGAAATA [CACACA_negctrl_site1086] | 8.72 ± 0.49
ATTATATATAAGAAGAGTACTGAATATGTGCAATAT [XGTACX_site4471] | 8.88 ± 0.32
TATATACACCCACATACACACAAATAAAAAAACACC [CACACA_site3414] | 9.64 ± 0.31

Sequence | gcPBM binding intensity (ln)
GACATTGATACCAGTAGTACCTATAGATGTTTGTTT [XGTACX_site5736] | 8.99 ± 0.42
TTATGGAATAATCACGTACACACAAGAAAAAAAAAA [CACACA_site526] | 9.07 ± 0.46
ATGGTACATACATACACACACACAAAAAAAAAAAAA [CACACA_site1578] | 9.8 ± 0.67
GTTCAATTTTTAGGAAGTACAAAAAAAAAAAAGAAA [XGTACX_site7286] | 8.44 ± 0.6
CAAACCTATATACAAACATGCAATCCACATATTGGT [TGCATGCA_site756] | 8.97 ± 0.4
TATATTAGTGTTGACACACACAAAAAAAAAAAAAAA [CACACA_site1396] | 8.98 ± 0.4
TATATTTGTATTGTTTGTACTTATATGAATTTATAT [XGTACX_site4228] | 8.9 ± 0.45
TAATGAAATTGTAGTAGTACCTTCTTATAAATAAAA [XGTACX_site6747] | 8.32 ± 0.53
TCACCTATTTTTAACTGTACTGAAATGATATATATA [XGTACX_site1366] | 8.71 ± 0.29
TATAAAAAAAAAAAATATATATATATATAAATATAA [TGCATGCA_negctrl_site367] | 8.65 ± 0.37
TAAAAATATTTTCATTGTACATATATATAAATATAT [XGTACX_site1123] | 8.56 ± 0.42
TAAGAAAAAAAAAAAAAAAAAAAAAAAAAAAAAAAA [CACACA_negctrl_site760] | 8.125 ± 0.021
ATTTGTTACGGACATGCATGCGAATCAGGGTATATA [TGCATGCA_site154] | 9.06 ± 0.28
TACATATATATATATATATATATATATATCATTATG [XGTACX_negctrl_site293] | 9.55 ± 0.18
TTGAGGAAATAACAGTGTACAAACAAATTATTACCA [XGTACX_site7082] | 9 ± 0.55
TTTGTGATATTATATTGTACCCTATATTTATTATAA [XGTACX_site4240] | 8.8 ± 0.46
GAATGGACGTTAGGGGGTACGTATAAAATTTATCAA [XGTACX_site683] | 8.93 ± 0.2
TTTATTGACAATTTATGTACATATAATTGAAAAATA [XGTACX_site6634] | 8.43 ± 0.46
ACATGTAAATGGAAAAGTACTAATAACTTGTATTGG [XGTACX_site5181] | 8.97 ± 0.52
ATTATTTGTTTAAATTCACACACGTATATATATTTA [CACACA_site3050] | 9.15 ± 0.37
ATAGAAATATTATATTGTACGAACAGTTATTAACAA [XGTACX_site2137] | 8.64 ± 0.45
TAATTATTAAAACATTGTACATTATTATAAACAATT [XGTACX_site4489] | 8.41 ± 0.52

Sequence | gcPBM binding intensity (ln)
TTATTTTAATATAAAATACACACTACTATTATAAAT [CACACA_site1470] | 8.52 ± 0.4
ATATATAAATATATTACACACTTTTTCTTTTTTTTT [CACACA_site7332] | 8.71 ± 0.49
TATTACATACAATATTGTACATATCATATTTTGAAT [XGTACX_site2191] | 8.92 ± 0.41
ACGGAAAAAGAAAAGGTGCATATGGACACAATATAT | 9.24 ± 0.58
CTTATATTAATTATTACACACATATTTATAAATGCA [CACACA_site6501] | 8.93 ± 0.29
TTTTCCATAAGAATTACACACAGAAAGGATAAGTAT [CACACA_site105] | 9.02 ± 0.49
AAACAGCATGGTATACCTATAAAATATATATACTAA [GTGCAC_negctrl_site39] | 8.81 ± 0.51
ATATTTACCTTTGTATGTACATATATAAAATATATC [XGTACX_site6367] | 8.88 ± 0.5
TTTTGTAAAAAGAAAAATTAGAATATATCGTATATA [XGTACX_negctrl_site617] | 8.11 ± 0.54
GTATATAAATATATATATATATATATATCTATATTT [CACACA_negctrl_site871] | 9.02 ± 0.42
GTATTTTTACAAATTTGTACATATATATGAATATAC [XGTACX_site6717] | 9.18 ± 0.4
AAAGAAAAATTAACATGTACAAAAATTACTTGTTCA [XGTACX_site6725] | 8.58 ± 0.49
TCTGAAACAAGAAAAAGTACACAAATTACAAAACTA [XGTACX_site7641] | 8.77 ± 0.45
AAAAAAAATTCACACTGTACAAAAGCATAAATAAAC [XGTACX_site5408] | 9.15 ± 0.39
TAATAAATACAAAAATGTACACACATATATATATTT [XGTACX_site7430] | 9.02 ± 0.38
TATATATATATTATCACACACTCACGTTTGACAAAA [CACACA_site689] | 9.07 ± 0.4
TTATTTATTTATTCATGTACGTGTATTTTTTAAAAA [XGTACX_site7915] | 8.62 ± 0.52
ATTGGGTACAAATACACACACATATATATATTAAGA [CACACA_site5330] | 9.4 ± 0.4
AGTGTCATATTAACACGTACATAATTATTGTAGAGA [XGTACX_site568] | 8.93 ± 0.39
ATATTGGAGCACAACACACACAAGTATATATATGGA [CACACA_site1546] | 9.52 ± 0.3
TATATATATATATATTGTACATATATTATTATATAT [XGTACX_site7447] | 9.21 ± 0.2
AAATAGCCAAAAATCATGCACACCTAAAAAAAAAAA [CACACA_site2572] | 8.93 ± 0.45
